In PubChem BioAssay (NCATS):
Inconclusive means that the source gave no clear call. Such entries were picked first, then a sample of the others. A potency beside an inconclusive call is a rough fit, not a confirmed value. Activity calls are given as the source filed them. The call rests on the fitted dose curve; in most records, active means well fitted cell-killing curve with a large enough effect; inconclusive means small, poorly fitted or top-dose-only effect, or effect the other way; inactive means no such curve, though single readings can be large or run the other way.

What was measured:
[1] = Viability qHTS for spleen associated tyrosine kinase inhibitor (SYKi) naive MV4-11 cells (AID 1963823); settings: MV4-11 AML viability, CellTiter-Glo luminescence, 72 h; series mostly up to 45 µM; further: nearly all actives have a fitted effect of over 40% in size
Outline: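 Read-out: CellTiter-Glo luminescence. Exposure: 72 hr, 37 C, 5% CO2, 95% humidity. Cells: MV4-11 without SYK inhibitor history, 500/well, qHTS format.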

[2] = Viability qHTS for spleen associated tyrosine kinase inhibitor (SYKi) drug resistant MV4-11 cells (AID 1963824); further: nearly all actives have a fitted effect of over 35% in size
Outline: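 CellTiter-Glo luminescence, read 10 min after reagent addition, reports viability after a 72 hr compound exposure. Cells are an MV4-11 line made resistant to SYK inhibition, seeded at 500 per well onto compound-containing plates.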
Potency means the concentration at half of the fitted maximal effect; tags describe the fitted curve by direction and shape.

Row | SMILES | Potency [1] | Potency [2]
1 | CNCCC(c1cccs1)c1ccc(O)c2ccccc12 (configuration not stated) | inconclusive: 14.6 µM [cytotoxic, partial curve, poor fit] | active: 14.6 µM
2 | COC1CC(O[C@H]2CC[C@]3(C)C4CC[C@@]5(C)C(=O)[C@]4(CC[C@@H]3C2)CC[C@@H]5C2=CC(=O)OC2)OC(C)C1OC1OC(COC2OC(CO)C(O)C(O)C2O)C(O)C(O)C1O (some centres not stated) | active: 1.1 µM | active: 1.23 µM
3 | CC(C)(C)NCC(O)COc1cccc2c1CCC(=O)N2 (configuration not stated) | inactive | inactive
4 | CN[C@H](CC(C)C)C(=O)N[C@H]1C(=O)N[C@@H](CC(N)=O)C(=O)N[C@H]2C(=O)N[C@H]3C(=O)N[C@H](C(=O)N[C@H](C(=O)O)c4cc(O)cc(O)c4-c4cc3ccc4O)[C@H](O)c3ccc(c(Cl)c3)Oc3cc2cc(c3O[C@@H]2O[C@H](CO)[C@@H](O)[C@H](O)[C@H]2O[C@H]2C[C@](C)(N)[C@H](O)[C@H](C)O2)Oc2ccc(cc2Cl)[C@H]1O | inactive | inactive
5 | C=C1CC[C@@H]2[C@](C)(CO[C@@H]3O[C@H](CO)[C@@H](O)[C@H](O)[C@H]3O)CCC[C@@]2(C)[C@@H]1CCC1=CCOC1=O | inactive | inconclusive: 8.93 µM [cytotoxic, partial curve, poor fit]
6 | O=S(=O)(Nc1ccc(C(O)(C(F)(F)F)C(F)(F)F)cc1)c1cccs1 | inconclusive: 14.6 µM [cytotoxic, partial curve] | active: 16.4 µM
7 | CCCCOc1ccc(S(=O)(=O)n2c(C)nc3ccccc32)cc1 | inconclusive: 11.2 µM [cytotoxic, partial curve, poor fit] | inconclusive: 10 µM [cytotoxic, partial curve]
8 | CC1(O)CCCC2(C)C1CCC13CC(CO)C(CCC12)C3 (configuration not stated) | inconclusive: 16.4 µM [cytotoxic, partial curve] | inconclusive: 25.9 µM [cytotoxic, single point]
9 | C/C(=C/CCC(CO)C1CCC2(C)C3CCC4C(C)(C)C(OC5OC(CO)C(O)C(O)C5O)CC(O)C45CC35CCC12C)COC1OC(CO)C(O)C(O)C1O (configuration not stated) | inactive | inactive
10 | C/C=C/C=C/C=C/C(=O)O[C@@H]1[C@@H](OC)C2=C(C(=O)N(C(CCC(=O)O)C(=O)O)C2)[C@@]2(C)CCCC(C)(C)[C@H]12 (some centres not stated) | inactive | inactive
11 | C=CCC1=C[C@]2(OC)[C@H](C)[C@@H](c3ccc(O)c(OC)c3)O[C@]2(OC)CC1=O | inconclusive: 20.2 µM [cytotoxic, single point] | inconclusive: 20.2 µM [cytotoxic, single point]
12 | C=C[C@H]1[C@H](O[C@@H]2O[C@H](CO)[C@@H](O)[C@H](OC(=O)/C=C/c3ccc(O)c(OC)c3)[C@H]2O)OC=C2C(=O)OCC[C@]21O | inactive | inactive
13 | CC12CCC3C1C(c1c(cc(O)c(C(=O)c4ccccc4)c1O)O2)C3(C)C (configuration not stated) | inconclusive: 0.0072 µM [rising, full curve, poor fit] | inconclusive: 5.08 µM [cytotoxic, partial curve, poor fit]
14 | CCCCCCCCCCCCCCCCCCN(C)C | inactive | inactive
15 | C=C[C@](C)(O)CC[C@H]1C(C)=CC(=O)[C@H]2C(C)(C)CCC[C@]12C | inconclusive: 16.4 µM [cytotoxic, partial curve, poor fit] | inconclusive: 20.6 µM [cytotoxic, single point]
16 | O=C(Nc1ccccc1Br)NC1CCN(c2ccc(C(F)(F)F)cn2)C1 (configuration not stated) | inconclusive: 20.6 µM [cytotoxic, single point] | inconclusive: 29.1 µM [cytotoxic, single point]
17 | Fc1ccc(CN2CCC(Nc3ccc(C(F)(F)F)nn3)CC2)cc1F | inconclusive: 23.1 µM [cytotoxic, single point] | inconclusive: 23.1 µM [cytotoxic, single point]
18 | Cc1ccc(N2CCN(S(=O)(=O)N3CCCCC3)CC2)c(C)c1 | inconclusive: 13 µM [cytotoxic, partial curve] | inconclusive: 20.6 µM [cytotoxic, partial curve]
19 | Cc1nnc(-c2sc(NC(=O)[C@H](C(C)C)n3c(=O)[nH]c4ccccc4c3=O)nc2C)o1 | inactive | inactive
20 | CC(C)(C)NCCCNC(=O)c1cccc(Br)c1 | inconclusive: 23.1 µM [cytotoxic, single point] | inconclusive: 18.4 µM [cytotoxic, single point]
21 | Cc1ccc(C)c(-c2cc(C(F)(F)F)nn2-c2ccc(S(N)(=O)=O)cc2)c1 | inconclusive: 23.1 µM [cytotoxic, partial curve] | active: 14.6 µM

Row | SMILES | Potency [1] | Potency [2]
22 | Oc1ccc([C@H]2COc3cc(O)ccc3C2)cc1 | inconclusive: 23.1 µM [cytotoxic, partial curve, poor fit] | active: 13 µM
23 | COc1ccc2[nH]c(=O)c3c(c2c1)OC(C)(C)C=C3 | inconclusive: 9.2 µM [cytotoxic, partial curve] | inconclusive: 9.2 µM [cytotoxic, partial curve]
24 | O=C(O)/C=C/c1ccc(O)c(O[C@@H]2O[C@H](CO)[C@@H](O)[C@H](O)[C@H]2O)c1 | inactive | inactive
25 | O=C1NC(Cc2c[nH]c3ccccc23)C(=O)NC1Cc1c[nH]c2ccccc12 (configuration not stated) | inconclusive: 8.05 µM [cytotoxic, partial curve, poor fit] | inactive
26 | CCOc1nc2c(N)ncnc2n1CC | inactive | inactive
27 | OC[C@@]1(O)CO[C@H](OC[C@H]2O[C@@H](OCCc3ccccc3)[C@H](O)[C@@H](O)[C@@H]2O)[C@@H]1O | inactive | inactive
28 | Nc1nonc1-c1nc2cnccc2n1C1CC1 | active: 2.06 µM | active: 2.31 µM
29 | Cc1cn(C2OC(CO)C(O)C2F)c(=O)[nH]c1=O (configuration not stated) | inconclusive: 7.31 µM [cytotoxic, partial curve, poor fit] | inconclusive: 3.66 µM [cytotoxic, full curve, poor fit]
30 | CC1CCC2(CO)C(C(=O)O)=CCCC2C1(C)CCc1ccoc1 (configuration not stated) | inconclusive: 12.8 µM [cytotoxic, single point] | inconclusive: 11.4 µM [cytotoxic, single point]
31 | CC(=O)OC[C@]12[C@H](OC(C)=O)[C@H](OC(=O)c3ccccc3)[C@@H]3[C@@H](OC(C)=O)[C@]1(OC3(C)C)[C@H](C)C[C@H](OC(C)=O)[C@@H]2OC(=O)c1ccccc1 | inactive | inconclusive: 7.69 µM [cytotoxic, single point]
32 | COc1ccccc1N1CCN(CCN2C(=O)CC3(CCCC3)CC2=O)CC1 | inconclusive: 32.6 µM [cytotoxic, single point] | inconclusive: 23.1 µM [cytotoxic, single point]
33 | C[C@H]1[C@H](C)CC[C@]2(C(=O)O)CC[C@]3(C(=O)O)C(=CCC4[C@@]5(C)CC[C@H](O[C@@H]6O[C@@H](C)[C@H](O)[C@@H](O)[C@H]6O)C(C)(C)C5CC[C@]43C)[C@H]12 (some centres not stated) | inactive | inconclusive: 7.69 µM [cytotoxic, partial curve, poor fit]
34 | Nc1nc2c(ncn2[C@@H]2O[C@@H]3COP(=O)(O)O[C@H]3[C@H]2O)c(=O)[nH]1 | inconclusive: 20.6 µM [cytotoxic, partial curve] | inconclusive: 14.6 µM [cytotoxic, partial curve, poor fit]
35 | CC(=O)O[C@@H]1[C@H](O[C@@H]2O[C@@H](CO)[C@H](O)[C@H]2O)[C@@H](O[C@@H]2O[C@@H](C)[C@H](O[C@@H]3OC[C@@H](O)[C@H](O)[C@H]3O)[C@@H](O)[C@H]2O)[C@H](OC(=O)[C@]23CCC(C)(C)C[C@H]2C2=CCC4[C@@]5(C)CC[C@H](O[C@@H]6O[C@H](C(=O)O)[C@@H](O)[C@H](O)[C@H]6O[C@@H]6O[C@H](CO)[C@H](O)[C@H](O)[C@H]6O)[C@@](C)(C=O)C5CC[C@@]4(C)[C@]2(C)CC3)O[C@@H]1C (some centres not stated) | inconclusive: 4.36 µM [cytotoxic, single point] | inconclusive: 3.47 µM [cytotoxic, partial curve, poor fit]
36 | COc1cc(O)c(C(=O)O)c(CCc2ccccc2)c1 | inconclusive: 25.9 µM [cytotoxic, single point] | inconclusive: 23.1 µM [cytotoxic, single point]
37 | CC1(C)CC[C@]2(C(=O)O)CC[C@]3(C)C(=CCC4[C@@]5(C)C[C@H](O)[C@H](O[C@@H]6OC[C@H](O)[C@H](O)[C@H]6O)[C@@](C)(CO)C5CC[C@]43C)[C@@H]2C1 (some centres not stated) | inconclusive: 5.44 µM [cytotoxic, single point] | inconclusive: 6.85 µM [cytotoxic, single point]
38 | Cc1nc2cc(C(=O)NCc3ccccn3)nn2c(C)c1Cc1cccc(Cl)c1 | inconclusive: 10.3 µM [cytotoxic, partial curve] | active: 20.6 µM
39 | O=C(O)CCCCC1CCSS1 (configuration not stated) | inactive | inconclusive: 23.7 µM [cytotoxic, single point]
40 | CNC(C)C(=O)NC(C(=O)N1CCCC1C(=O)Nc1snnc1-c1ccccc1)C1CCCCC1 (configuration not stated) | inconclusive: 16.4 µM [cytotoxic, single point] | inconclusive: 4.11 µM [cytotoxic, partial curve]
41 | CCNC(=O)C1OC(n2cnc3c(N)nc(NCCc4ccc(CCC(=O)O)cc4)nc32)C(O)C1O (configuration not stated) | inconclusive: 8.2 µM [cytotoxic, partial curve, poor fit] | inconclusive: 2.06 µM [cytotoxic, full curve, poor fit]
